To fix the notation:
B1: CPEB3 Ribozyme (parent)
chain: UAACAGGGGGCCACAGCAGAAGCGUUCACGUCGCAGCCCCUGUCAGAUUCUGGUGAAUCUGCGAAUUCUGCUGUAUAUCUC

Read counts are not given, so values of variants with three or more changes are uncertain.

In this data set the parent is B1. Kind of data set: self-cleavage, relative activity (ratio to wild type); higher = more cleavage; in vitro, sequencing. Summed up:
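For each CPEB3 ribozyme variant, relative activity is its cleaved/total read fraction divided by the unmutated ribozyme's. Barcoded error-prone PCR libraries were transcribed by T7 RNA polymerase (5 hours, 37°C) and held in DNase I for 15 min before an EDTA stop, with cleavage occurring throughout. Template-switching reverse transcription and Illumina sequencing were used to read the RNAs. A 5-read minimum applied, and results are the mean of three batches.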
On to UAACAGGGGGCCUCAGCAGAAGCGUCCACGUCGCAGCCUCUGUCAGAUUCUGGUGAAUCUGCGGAUUCUGCAGUAUAUCUC [A13U U26C C39U A64G U72A], for which the self-cleavage worked out at 0.06.

UAACAGGGGGCCUCAGCAGAAGCGCUCACGUCGCAGCCCCUGUCAGAUUCUGGUGAAUCUGCGAAUUCUGCUGUAUGUCUC [A13U U25C A77G]: the self-cleavage stood at 0.34.

Take UAACAGGGGGCCUCAGCAGAAGCGUUCACGACGCAGCCCCUGUCAGAUUCUGGUGAAUCUGCGAAUUCCGCUGUAUAUCUC [A13U U31A U69C]: the self-cleavage was found to be 0.24.

Turning to UAACAGGGGGCCUCAGCAGAAGCGUUCACGACGCAGCCCCUGUCAGAUUCUGGUGAAUCUGCGAAUUCUGCUGUAUACCUC [A13U U31A U78C], the self-cleavage is 0.67.

Take UAACAGGGGGCCUCAGCAGAAGCGUCCACGUCGCAGCCCCAGUCAGAAUCUGGAGAGCCUGCGAAUUCUGCUGUAUAUCUC [A13U U26C U41A U48A U54A A57G U58C]: the self-cleavage was 0.03.

As to UAACAGGGGGCCUCAGCAGAAGCGAUCACGUCGCAGCCCCUGUCAGGUCCUAGUGAAUCUGCAAAUUCUGCUGUAUAUCUC [A13U U25A A47G U49C G52A G63A], the self-cleavage stood at 0.18.

Regarding UAACAGGGGGCCUCAGCAGAAGCGAUCACGUCGCAGCCCCUGUCAGAUUCUGGUGAAUCUGCGAAUUCUGCUGUAUACCUC [A13U U25A U78C], the self-cleavage worked out at 0.49.

Consider UAACAGGGGGCCUCAGCAGAAGCGUCCACGUCGCAGCCCCUGUCUGGUUCUGGGGAAUCUGCGAAUGCUGCCGUAUAUCUC [A13U U26C A45U A47G U54G U67G U72C], for which the self-cleavage amounted to 0.05.

Turning to UAACAGGGGGCCUCAGCAGAAGCGUUCACGCCGCAGCCCCUGUCAGAUCCUGGCGGAUCUGCGAAUUCUGCUGUAUGCCUC [A13U U31C U49C U54C A56G A77G U78C], the self-cleavage came to 0.49.

For UAACAGGGGGCCUCAGCAGAAGCGUUCACGCCGCAGCCCCUGCCAGAUUCUGGUGUAUCUGCGAAUUCUGCUGUAUUUCUC [A13U U31C U43C A56U A77U], the self-cleavage is 0.11.

Regarding UAACAGGGGGCCUCAGCAGAAGCGUACACGUCACAGCCCCUGUCAGAUUCUGGUGAAUCUGCGAAUUCCGCCGUAUAUCUC [A13U U26A G33A U69C U72C], the self-cleavage was determined as 0.07.

Consider UAACAGGGGGCCUCAGCAGAAGCGCUCACGUCGCUGCCCCUGUCAGUUUCUGGUGGAUCAGCGAAUUCAGCUGUAUAUCUC [A13U U25C A35U A47U A56G U60A U69A], for which the self-cleavage was 0.14.

For the variant UAACAGGGGGCCUCAGCAGAAGCGCCCACGUCGAGGCCCCUGUCCGAUUCUGGUGAAUCUGCGAAUUCUGCCGUAUAUCUC [A13U U25C U26C C34A A35G A45C U72C], the self-cleavage amounted to 0.07.

Take UAACAGGGGGCCUCAGCAGAAGCGUCCACGUCGCAGCCCCUGUCAGAUUCUGGUGAAUCUGCGAAUUCUGCUGUGUAUCUC [A13U U26C A75G]: the self-cleavage was found to be 0.28.

Consider UAACAGGGGGCCUCAGCAGAAGCGUGCACAUCGCGGCCCCUAUCAGAUUCUGGUGAAUCUGCGAAUUCUGCCGUAUAUCUC [A13U U26G G30A A35G G42A U72C], for which the self-cleavage amounted to 0.06.

Regarding UAACAGGGGGCCUCAGCAGAAGCGUCCACGUCGCAGCCCCUGUCAGAUUCUGGUGAUUCCGCGAAUUCUGUUGUAUAUCUC [A13U U26C A57U U60C C71U], the self-cleavage was determined as 0.1.

Turning to UAACAGGGGGCCUCAGCAGAAGCGUUCACGCCGCAGCCCCCGUCAGAUUCCGGUGAAUCUGCGAAUUCUGCUGCAUACCUC [A13U U31C U41C U51C U74C U78C], the self-cleavage came to 1.07.

Consider UAACAGGGGGCCUCAGCAGAAGCGUCCACGUCGUAGCCCCAGUCAGAUUCUGGCGUAUCUGCGAAUUCUGCUGUAUAUCUC [A13U U26C C34U U41A U54C A56U], for which the self-cleavage was found to be 0.12.

On to UAACAGGGGGCCUCAGCAGAAGCGCUCACGUCACAUCCCCUGUCAGAUUCUGGUGAAUCUGCGAAUUCUGCUGUAUAUCUC [A13U U25C G33A G36U], for which the self-cleavage worked out at 0.07.

For the variant UAACAGGGGGCCUCAGCAGAAGCGUACGCGCCGCAGCCCCUGUCAGAUUCAGGUGAAACUGCGAAUUCUGCUGUAUAUCUG [A13U U26A A28G U31C U51A U58A C81G], the self-cleavage came to 0.06.

As for UAACAGGGGGCCUCAGCAGAAGCGUCCACGUCGCAGCCCCUGUCGGAUUUCGGUGAAUCUGCGAAUUCUGCCGUAUAUCUC [A13U U26C A45G C50U U51C U72C], the self-cleavage worked out at 0.22.

As to UAACAGGGGGCCUCAGCAGAAGCGUUCACGACUCAGCCCCUGUCAGAUUCUGGUGAGUCUGCGAAUUCUGCUGUAUAUCUC [A13U U31A G33U A57G], the self-cleavage was determined as 0.09.

On to UAACAGGGGGCCUCAGCAGAAGCGCUCUCGUCGCAGCCCCUGUCAGAUUCUGGUGAGUCCGCGAAUUCUGCUGUAUAUCUC [A13U U25C A28U A57G U60C], for which the self-cleavage turned out to be 0.12.

On to UAACAGGGGGCCUCAGCAGAAGCGCUCACGUCGCAGCCCCCGUCAGAUUCUGGUGAAUCUGCGAAUUCUGCUGUAUAUCUC [A13U U25C U41C], for which the self-cleavage was determined as 0.18.

UAACAGGGGGCCUCAGCAGAAGCGCUCACGUCGCGGCCCCUGCCAGAUUCUGGUGAAUCUGCGAAUACUGCUGUAUAUCUC [A13U U25C A35G U43C U67A]: the self-cleavage stood at 0.21.

With UAACAGGGGGCCUCAGCAGAAGCGAUCACGUCGCAGCCCCUGUCAGAUUCUGGUGAAUCUGCGAAUUCUGCUGUACAUCUC [A13U U25A U76C], the self-cleavage was 0.43.

In the case of UAACAGGGGGCCUCAGCAGAAGCGUUCACGCCGCAGCCCCUGUCAGAAUCUGGUGAGUCUGCGAAUUCUGCUGUUUAUCUC [A13U U31C U48A A57G A75U], the self-cleavage worked out at 0.

With UAACAGGGGGCCUCAGCAGAAGCGUUCACGCCGCAGCCCCUGACAGAUUCUGGUGAAUCUGCGGAUUCUGCUGUAUAUCUC [A13U U31C U43A A64G], the self-cleavage came to 0.68.

Turning to UAACAGGGGGCCUCAGCAGAAGCGUCCACGUCGCGGCCCCUGUCAGAUUCUGGUGAAUCUGCGAAUUCUGCUGUAUAUCUC [A13U U26C A35G], the self-cleavage worked out at 1.1.

Consider UAACAGGGGGCCUCAGCAGAAGCGUUCACGACGCAGCCCCUGCCAGAUUCUGGUGAAUCUGCGAAUUCUGCUGUAUAUCUC [A13U U31A U43C], for which the self-cleavage turned out to be 0.37.

Regarding UAACAGGGGGCCUCAGCAGAAGCGCUCACGUCGCAGCCCCUGUGAGAUUCUGUUGAAUCUGCGAAUUCUGCUGCACAUCUC [A13U U25C C44G G53U U74C U76C], the self-cleavage is 0.05.

Consider UAACAGGGGGCCUCAGCAGAAGCGCUCACGUCGCAGCCCCUGUCAGAUUCUGGUGAAUCUGCGUAUUCUGCUGUAUAUCUC [A13U U25C A64U], for which the self-cleavage was determined as 0.16.

As for UAACAGGGGGCCUCAGCAGAAGCGCUCACGUCGCAGCCCCUGUCAGAUUCUGGUGAGUCUGCGAAUUCUGCUGUAUAUCUC [A13U U25C A57G], the self-cleavage came out at 0.19.

With UAACAGGGGGCCUCAGCAGAAGCGUUCACGCCGCAGCCCCCGUCAGAUUCUGGUGAAUCUGCGAAUUCUGCUGUAUAUCUC [A13U U31C U41C], the self-cleavage came to 0.85.
